# The list shows a part of the results. At the low end of the ranking, values are background and their order means little.
# Target: SIX1 homeodomain (reference allele) (UniProt Q15475)
# Assay: universal protein binding microarray
# Conditions: Universal all-10-mer PBM (8x60K, AMADID 030236), 300 nM GST-tagged protein, Alexa Fluor 488 anti-GST; buffer, salt, pH and temperature not stated; high values mean tight binding; most listed sequences are background and not binding sites; double strand, one strand shown
row,Sequence,binding signal [E-score]
1,GAGCTTGC,-0.114
2,AATAACTA,-0.173
3,CTTAGTAC,-0.0566
4,AGTTTCTA,-0.337
5,GGGACTAC,-0.134
6,ACATAAGA,0.0712
7,AGCACCTC,-0.181
8,ATGTTAGG,-0.109
9,AGCGGTAA,-0.214
10,GACCAAAA,-0.248
11,AACACAAG,-0.273
12,AATCTCCT,-0.00675
13,GAGGGAGA,0.0615
14,CGTAATAG,-0.0392
15,AGGAGTAC,-0.0811
16,CCTTCCAC,-0.189
17,CAACGGGG,-0.056
18,TATACAGA,0.216
19,AGCAGTCC,-0.322
20,ATGCTCCG,0.0409
21,AAGGGGGT,0.13
22,GAGTACAA,-0.0437
23,CACTAAAG,-0.318
24,ATCCGTGC,0.253
25,TACCAGCA,-0.0257

row,Sequence,binding signal [E-score]
1,TATGAAGA,0.0819
2,GCCGAAGC,-0.0838
3,AGTTGACG,-0.178
4,GAAAAGTA,-0.0938
5,CCCCGGAC,-0.0529
6,AAATGGAA,-0.284
7,AAGATATG,0.303
8,AAAACCAG,0.0442
9,ACCTAAAT,-0.0188
10,GTGACGAA,-0.174
11,ACGCAACA,-0.153
12,AGCCTCTC,-0.195
13,GTATTGAC,0.192
14,CCTTGCAG,-0.0753
15,AGGGCAGA,0.019
16,CAAGCCAG,-0.133
17,TAGATCTA,0.175
18,CATACCCG,0.259
19,ACGTCAAA,-0.273
20,GGCACGCA,-0.208
21,CCGTACAC,0.081
22,CAAGTGAC,0.0332
23,ACTCTGCT,-0.186
24,GCGCGGCA,-0.186
25,CCAGCGAC,-0.21

row,Sequence,binding signal [E-score]
1,AAGGACCT,-0.292
2,ATCACGGG,0.104
3,TGTTTGAA,-0.147
4,ATCGCTGG,0.23
5,CTCCATAA,-0.283
6,AGCTAACC,-0.166
7,ACGGGGCA,-0.0345
8,CAGCGACC,-0.0129
9,CTACCTTA,-0.00171
10,CAGTTAAA,-0.281
11,CAGAGTGA,0.148
12,CACTTGAG,-0.0599
13,GAAGAATC,0.124
14,GGACCTCA,-0.17
15,CCAGCGGC,-0.158
16,GCAAGCGC,-0.172
17,ATGGTGGG,-0.0179
18,CTGGCTCA,0.049
19,ATTATTGA,0.0348
20,GGCGTCGA,-0.119
21,ATACGGCC,0.344
22,AAATCTCT,-0.279
23,CTGTAGAA,-0.137
24,GCTCTCTA,-0.0409
25,AGCAAAAC,-0.251

row,Sequence,binding signal [E-score]
1,CTATCAAA,0.258
2,CGGCTATC,0.353
3,ATCTCTCA,0.252
4,GACATACA,-0.0412
5,GAGTGCGC,-0.25
6,AATGTCCC,-0.102
7,GAGATCCA,0.332
8,ATAATATG,0.27
9,ACTATCAA,0.253
10,AAGTGACC,0.0405
11,GAGGTACA,-0.0245
12,CCCGAATC,0.0551
13,GTATAACA,0.238
14,GTGGCCGA,-0.0528
15,ACATCAAT,-0.163
16,AGGTGGAT,0.305
17,ATTATTCA,0.138
18,ATGGAAGA,-0.0359
19,ACGGGGGA,0.217
20,ATACCTTC,0.323
21,CATGTTTC,-0.112
22,ACCCACGC,-0.0578
23,ACAATGGA,0.118
24,AGCTAGGG,0.0411
25,AAAATACA,-0.0125

row,Sequence,binding signal [E-score]
1,GGTTTAGA,0.124
2,AGGAGGCA,-0.119
3,GCTTCGTA,-0.0231
4,CACTGCCA,-0.0495
5,ACGAATAT,0.179
6,GATATCCA,0.452
7,GCGCCGCA,-0.194
8,CTAGCAGA,0.0232
9,ATTCGAAT,-0.235
10,ACGAGGAT,0.134
11,ATCTGAAT,0.0787
12,ACGTGTGC,-0.0816
13,ACTGGGAA,-0.191
14,AACGCCAC,-0.157
15,ACCCAAAG,-0.191
16,GTGCTCAA,-0.00172
17,GCCCGGCA,-0.228
18,AGCTTTAG,-0.114
19,CTACCGCA,-0.00924
20,CATAGCAA,-0.147
21,GTTAACCA,-0.218
22,AGTCCAGC,-0.247
23,ATTTGGGG,0.0858
24,CTCCTTCA,-0.119
25,ATTCCGTC,-0.137

row,Sequence,binding signal [E-score]
1,AGTCCCCC,-0.132
2,GGACCGAC,-0.0671
3,ACATCCAA,-0.174
4,CACAGGCA,-0.0965
5,AGCAAGGC,-0.197
6,GCATCCTA,0.108
7,GTCTTAGA,-0.118
8,GAAATAGA,0.0945
9,GGGCCAAA,-0.191
10,GAAAGTCA,-0.364
11,CGAGACCA,-0.0423
12,ATCACCGA,0.251
13,GCACTCTA,-0.0542
14,ACAGTGTA,0.0563
15,TCCTCCCA,-0.0118
16,CGACACGC,0.0501
17,ACGATATA,0.296
18,GCCACACC,0.0417
19,GCCTAGGC,-0.284
20,CAGCATAC,-0.0472
21,GCGGCTCC,-0.171
22,CGCTTTCA,-0.2
23,CTCGAACC,-0.245
24,ATCCACGG,0.187
25,CTATAATC,0.157

row,Sequence,binding signal [E-score]
1,GTTGGCGA,-0.129
2,ACACGTAA,0.00241
3,AGAGGAGA,-0.0368
4,GCGTCACC,-0.264
5,ACGACTCG,0.0337
6,GCTGGTGA,0.0944
7,CCGTACCG,0.0495
8,ATGTGATG,0.031
9,CTCGCGCA,-0.0434
10,GCCGGTAA,0.0528
11,AAGGAGAC,0.00413
12,AGCAGTAT,0.313
13,AAACGGCT,-0.202
14,AAGCCTCT,-0.214
15,CATTCCGG,-0.0999
16,ATGATCAT,0.246
17,CATCGTAA,-0.0635
18,GGTGGTAA,-0.084
19,ACTCAAAC,-0.0901
20,CCCTCGCC,-0.0217
21,GTTTTCGA,-0.229
22,GTACGAAC,-0.00865
